This passage reports z-score results from PubChem BioAssay AID488969 (Vanderbilt High Throughput Screening Facility, 2010).

Over roughly 110,000 compounds, “z-score” has its median near -0.1; the highest 2% begin near 2. The list shows a part of the results. Active and inactive are the calls of the source.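 Rule for the calls: active = z-score in the third read window above 3 or below -3; inactive = the rest.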

This test concerns the target Metabotropic glutamate receptor 8 (Rattus norvegicus) (UniProt P70579). As to the kind of experiment: rat mGluR8 modulators via GIRK flux, primary screen, cell-based, thallium flux, HTS (AID 488969). The settings on record: HEK293 rat mGluR8, GIRK (G protein-gated inwardly rectifying potassium channel) thallium flux, FluoZin2; at 10 µM; stronger effect = higher value.
UniProt P70579, sequence (P70579 whole entry, looked up): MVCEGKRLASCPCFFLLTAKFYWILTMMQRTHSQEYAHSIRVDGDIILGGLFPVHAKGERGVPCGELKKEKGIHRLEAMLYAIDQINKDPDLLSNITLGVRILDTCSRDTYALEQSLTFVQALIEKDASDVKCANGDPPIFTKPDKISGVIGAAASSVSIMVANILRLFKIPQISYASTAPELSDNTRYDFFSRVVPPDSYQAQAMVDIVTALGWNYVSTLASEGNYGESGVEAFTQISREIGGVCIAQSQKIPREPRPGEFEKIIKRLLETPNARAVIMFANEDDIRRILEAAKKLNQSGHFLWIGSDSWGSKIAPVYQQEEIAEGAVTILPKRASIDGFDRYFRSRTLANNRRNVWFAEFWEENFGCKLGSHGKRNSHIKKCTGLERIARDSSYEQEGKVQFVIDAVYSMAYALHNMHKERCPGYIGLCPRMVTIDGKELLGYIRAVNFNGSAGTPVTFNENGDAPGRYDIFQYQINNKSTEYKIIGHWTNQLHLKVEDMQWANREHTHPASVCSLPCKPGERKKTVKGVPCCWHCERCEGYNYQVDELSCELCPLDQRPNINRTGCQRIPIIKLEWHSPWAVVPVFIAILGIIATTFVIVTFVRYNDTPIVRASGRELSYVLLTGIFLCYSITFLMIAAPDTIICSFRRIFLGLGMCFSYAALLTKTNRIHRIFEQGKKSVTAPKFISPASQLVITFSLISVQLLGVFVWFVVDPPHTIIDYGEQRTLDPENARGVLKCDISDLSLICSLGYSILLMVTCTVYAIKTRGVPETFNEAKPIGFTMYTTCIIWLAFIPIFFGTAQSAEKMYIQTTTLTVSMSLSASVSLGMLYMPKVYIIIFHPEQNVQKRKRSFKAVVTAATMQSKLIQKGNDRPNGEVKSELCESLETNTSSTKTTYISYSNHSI
Turning to `C=CCn1c(O)c(C(CC)=NCCC2=CCCCC2)c(=O)[nH]c1=O`, the z-score was -1.62.

The compound `CCN(CC)CC(=O)Nc1ccc(Cl)cc1C(=O)c1ccccc1` showed a z-score of -0.272.

In turn, `O=C1CN=C(c2ccccc2)c2oc3ccc(Br)cc3c2N1` yielded a z-score of 0.649.

The compound `CCOc1ccc(-n2c(O)c(C=NCCN(CC)CC)c(=O)[nH]c2=O)cc1` displayed a z-score of 0.557.

`CCCCC(=O)C1C(=O)NC(=O)NC1=O` gave a z-score of -0.0734.

Compound `O=c1[nH]c(=O)n(CCC2=CCCCC2)c(O)c1C=NCCN1CCNCC1` showed a z-score of -0.157.

As to `CN1CCN(c2ccc(NC(=O)C(C)(C)C)cc2)CC1`, the z-score is -0.363.

`Cc1c(/C=N/O)c2ccccc2n1C` displayed a z-score of 0.0669.

`CCN1C(=O)NC(=O)/C(=C\c2ccc(N3CCOCC3)cc2OC)C1=O`: the z-score was determined as 0.512.

As to `COCCCNC(=O)c1c(NC(=O)c2ccccc2Cl)n(Cc2ccccc2)c2nc3ccccc3nc12`, the z-score is -0.416.

As for `O=C1/C(=C/c2cc([N+](=O)[O-])ccc2Cl)N2CCC1CC2`, the z-score is -0.125.

Take `Cn1c(O)c(C=Nc2ccc(Cl)cc2)c(=O)n(C)c1=O`: the z-score is -0.288.

Regarding `C/C(Cl)=C/CC1(CN2CCCC2=O)C(=O)NC(=O)NC1=O`, the z-score is -0.483.

Turning to `CN1CCN(CCOC2c3ccccc3CSc3ccc(Cl)cc32)CC1` (stereo not drawn), the z-score is 1.08.

As for `C=Cn1ccnc1P(=S)(c1c(C)nn(-c2ccccc2)c1C)c1nccn1C=C`, the z-score is -0.273.

Compound `COc1cc2c(cc1C=O)OCO2` had a z-score of -0.411.

Consider `CC1(C)C2CC=C(CN3CCC(O)CC3)C1C2` (stereo not drawn), for which the z-score was -0.129.

As for `O=c1c(C=Nc2cccnc2Cl)c(O)n(CCCCl)c(=O)n1C1CCCCC1`, the z-score was -0.0224.

`C=CCn1c(O)c(C(CC)=Nc2ccccc2NC(C)=O)c(=O)[nH]c1=O` had a z-score of -0.35.

`Cc1cc(S(=O)(=O)NC(C)C)ccc1OCC(=O)N1CCN(Cc2ccc3c(c2)OCO3)CC1` yielded a z-score of 0.0732.

In the case of `CN(C)C(=O)Oc1cccc(NC(=O)N2CCOCC2)c1`, the z-score was -0.136.

Consider `Cc1cc(/C=C2/C(=O)NC(=O)N(c3ccccc3)C2=O)c(C)n1-c1ccc(F)cc1`, for which the z-score is -0.668.

`CN1CCN(CC(=O)Nc2ccc(Cl)cc2C(=O)c2ccccc2)CC1` showed a z-score of -1.07.

For `c1ccc2c(CNC3CCCCC3)c[nH]c2c1`, the z-score was active: 4.16.

On to `COC(=O)CCCNC(=O)CN1CC(c2ccccc2)CC1=O` (stereo not drawn), for which the z-score is -0.0212.

`Cc1ccc(-n2c(O)c(/C=N/N3CCOCC3)c(=O)[nH]c2=S)cc1` had a z-score of -0.2.

Compound `CN(C)C(=O)Oc1ccc(OC(=O)c2ccccc2)cc1` gave a z-score of -0.265.

Turning to `CC(=NCc1ccco1)c1c(O)n(Cc2ccccc2)c(=O)[nH]c1=O`, the z-score was -0.967.

`CCCCn1c(NS(=O)(=O)c2ccccc2)c(C(=O)OCC)c2nc3ccccc3nc21` registered a z-score of -0.586.

`COc1cc2c(cc1OC)CN(c1ccc([N+](=O)[O-])c(C(F)(F)F)c1)CC2` returned a z-score of -0.0804.

`COC(=O)N(C)c1ccc(C(O)(C(=O)OC)C(F)(F)F)cc1` (stereo not drawn) yielded a z-score of 0.0514.

`COc1ccc(CCNCc2ccccn2)cc1OC` yielded a z-score of 0.3.

With `Cn1c(O)c(N=Nc2ccc(S(=O)(=O)N3CCOCC3)cc2)c(=O)n(C)c1=O`, the z-score was -0.0128.

For the compound `N=c1sc2c(n1Cc1ccccc1)CCCC2`, the z-score amounted to 0.682.

Turning to `CCN(CC)c1ccc(N=Cc2c(O)n(-c3ccccc3C)c(=O)[nH]c2=O)cc1`, the z-score was -0.448.

In turn, `ON1C2CCCCC2N(O)C1c1ccccc1` (stereo not drawn) displayed a z-score of -0.0747.

With `O=C(O)CP(=O)(O)c1ccc(Cl)cc1`, the z-score was -0.0342.

`CCN(CC)CCN=Cc1c(O)n(Cc2ccccc2)c(=O)[nH]c1=O`: the z-score is 0.598.

As to `COc1ccc(CC(=O)N2CCN(C)CC2)cc1`, the z-score turned out to be 0.2.

The compound `O=c1[nH]c(=O)n(C2CCCCCC2)c(O)c1C=NCC1CCCO1` (stereo not drawn) came in with a z-score of 0.706.

In turn, `O=c1[nH]c(=O)n(C2CCCCCC2)c(O)c1C=NC1CCN(Cc2ccccc2)CC1` returned a z-score of -0.182.

For the compound `Cc1ccc2c(c1)CC1(CN2C)C(=O)NC(=O)N(CCc2ccccc2)C1=O` (stereo not drawn), the z-score was -0.273.

Compound `CC(=O)Nc1ccc(OC(=O)N(C)c2ccccc2)cc1` returned a z-score of 0.899.

As for `O=C(CNC1CCCCC1)N1CCC2(CC1)OCCO2`, the z-score was -0.0875.

For the compound `N[C@@H](Cc1c[nH]c2ccccc12)c1nnc(SCc2c(F)cccc2Cl)o1`, the z-score was found to be 0.752.

In the case of `C=C1C(O)(c2ccccc2)C2CC[N+]1(C)CC2` (stereo not drawn), the z-score was -0.166.

On to `COc1ccc(CCNCc2ccncc2)cc1OC`, for which the z-score is 0.0616.

`CN1CCN(c2ccccc2N)CC1`: the z-score is -0.225.

For `c1ccc(CCNCc2ccccc2)cc1`, the z-score was -0.78.

`Cc1ccccc1-n1c(C)nc2sccc2c1=O` had a z-score of -0.112.

For the compound `CC(C)n1c(=O)c(C=Nc2ccc(Br)cc2)c(O)n(Cc2ccco2)c1=O`, the z-score was -0.156.

For `COc1cc2c(cc1OC)C(C(=O)N1CCC3(CC1)OCCO3)C(c1ccccc1F)N(C)C2=O` (stereo not drawn), the z-score was -0.19.

Take `CC1(c2ccccc2)NCCN2C(=O)CSC21` (stereo not drawn): the z-score was 0.0931.

As for `CC(C)(C)C(O)C(Oc1ccc(Cl)cc1)n1cncn1` (stereo not drawn), the z-score stood at 1.71.

`CC(C)CCNC(=O)c1c(N)n(Cc2ccc3c(c2)OCO3)c2nc3ccccc3nc12` came in with a z-score of -0.182.

Turning to `CCCCCc1nc2ccccc2c(=O)n1-c1ccccc1[N+](=O)[O-]`, the z-score is -0.173.

With `O=C(Oc1c(Cl)cc(Cl)c2ccccc12)N1CCCCC1`, the z-score is 0.0761.

The compound `CCOc1ccc(C2SCC(=O)Nc3c2c(C)nn3C2CCOC(C)(C)C2)cc1` (stereo not drawn) came in with a z-score of 0.145.

For the compound `COc1cc(/C=N/NC(=O)CN2CC(c3ccccc3)CC2=O)ccc1OC(=O)N(C)C` (stereo not drawn), the z-score was 0.00739.

With `COC(=O)C1=Nc2ccccc2/C1=C\c1c(O)n(-c2ccc(Br)cc2)c(=O)[nH]c1=O`, the z-score is -0.0459.

`Cc1ccnc(-n2c(C)cc(C=C3C(=O)N(C)C(=S)N(C)C3=O)c2C)c1` registered a z-score of 0.6.

In the case of `CCCC(C)C1(CC)C(=O)NC(=Nc2ccccc2OC)NC1=O` (stereo not drawn), the z-score was 0.0351.

The compound `Cc1cccc(C)c1NC1=NCCCCS1` had a z-score of -0.0499.

`O=C(CCc1nc(-c2ccccc2F)no1)N1CCC2(CC1)OCCO2` returned a z-score of -0.284.

In turn, `O=C(CNC(=O)OCc1ccccc1)Nc1ccc(Br)cc1C(=O)c1ccccc1` had a z-score of -0.326.

Regarding `O=C(c1cccs1)N1C2CCC1CC(O)(c1cccnc1)C2` (stereo not drawn), the z-score was -0.398.

For `Nc1cc(Cl)c2nonc2c1[N+](=O)[O-]`, the z-score was -0.31.

For `O=C(CN1CCCC1=O)N1CCOCC1`, the z-score came to 0.264.

Compound `Cc1ccc2c(c1)CCCN2N=O` showed a z-score of -0.379.

`Cc1cc(C=C2C(=O)NC(=O)NC2=O)c(C)n1-c1ccc2c(c1)OCO2` displayed a z-score of -0.244.

Regarding `CCOC(=O)N1CCC(NC(=O)CCc2nc(C3=CCN(C)CC3)no2)CC1`, the z-score was -0.113.

`CNP1(NC)=NC(C(F)(F)F)=NC(C(F)(F)F)=N1` displayed a z-score of 0.0266.

On to `CCCCCc1nc2c(c(=O)c3ccccc3n2C)c(=O)n1C1CCCCCC1`, for which the z-score was -0.518.
